Reference: PubChem BioAssay AID624296 (National Center for Advancing Translational Sciences (NCATS), 2012)
Among all 350,000 compounds or so, about 9,900 (2.8%) were called active. The shares of active, inactive and inconclusive entries below differ from those in the screen. Calls follow the shape of the dose curve; as a rule, active = well fitted activation curve with a large enough effect; inconclusive = small, poorly fitted or top-dose-only effect; inactive = no such curve, though single readings can be large or run the other way. Potencies of inconclusive entries are left out as doubtful fits.
Potency is read from the fitted curve at half-maximal effect; tags tell the direction and shape of the fitted curve.

Assay: A quantitative high throughput screen for small molecules that induce DNA re-replication in MCF 10a normal breast cells. Also: nearly all actives have a fitted effect of over 50% in size.
Settings: MCF 10A DNA re-replication, Hoechst nuclear intensity, 48 h; series mostly up to 46.1 µM
For `CCOC(=O)c1ncn2c1CN(C)C(=O)c1cc(F)ccc1-2`, the Potency was “inactive”. In the case of `CCCCn1c(N)c(N(CC)C(=O)c2cccs2)c(=O)[nH]c1=O`, the Potency is reported as “inactive”. For `O=C(/C=C/c1c(F)cccc1Cl)Nc1ncccn1`, the Potency was “inactive”. For `CNC1C(O)C(OC2C(N)CC(N)C(OC3OC(CN)=CCC3N)C2O)OCC1(C)O` (stereo unspecified), the Potency was “inactive”. In the case of `CC(C)(C)NC(=O)c1ccc(COc2ccc(Cl)cc2Cl)o1`, the Potency is reported as inconclusive [activator, single point]. With `O=C(NCC(c1cccs1)N1CCOCC1)c1cn(-c2ccccc2)nc1-c1ccc(F)cc1` (stereo unspecified) the Potency was inconclusive [activator, single point]. In the case of `N=c1oc2ccccc2cc1-c1nc(-c2ccccc2)cs1`, the Potency is reported as active: 10.3 µM. In the case of `CCN(CCn1cccn1)C(=O)C1CCC(=O)N(CCN2CCOCC2)C1` (stereo unspecified), the Potency is reported as “inactive”. In the case of `CCn1c(/C=C/c2c(C)n(CC)c3ccccc23)nc2ccccc2c1=O`, the Potency is reported as inconclusive [activator, full curve, poor fit]. For `Cc1cc(C)c2nc(SCc3ccc([N+](=O)[O-])cc3)nc(C)c2c1`, the Potency was inconclusive [activator, partial curve, poor fit]. In the case of `CCOC(=O)c1[nH]c2ccc(OCC)cc2c1NC(=O)CN1CCN(c2ccccn2)CC1`, the Potency is reported as inconclusive [activator, partial curve, poor fit]. In the case of `C#CCOC(=O)Nc1cccn(Cc2c(Cl)cccc2Cl)c1=O`, the Potency is reported as inconclusive [activator, single point]. With `O=C(O)c1cc(N2C(=O)CCC2=O)ccc1Cl` the Potency was inconclusive [activator, single point]. With `Cc1cc(OCC(=O)Nc2cnn(CCCC(=O)O)c2)ccc1[N+](=O)[O-]` the Potency was inconclusive [activator, single point]. For `CCOC(=O)C1(CCOC)CCN(C(=O)Cc2ccc3ccccc3c2)CC1`, the Potency was inconclusive [activator, partial curve, poor fit]. With `CC(=O)n1c2ccccc2c2c1c1ccccc1n2C` the Potency was inconclusive [activator, single point]. With `CCOc1nc(-c2ccc(OC)cc2)ccc1-c1noc(C)n1` the Potency was inconclusive [activator, partial curve, poor fit]. With `COc1ccc(NC(=O)CC2C(=O)N(c3ccc(Cl)cc3)C(=S)N2NC(=O)c2cccc(F)c2)cc1` (stereo unspecified) the Potency was inconclusive [activator, single point]. For `Cc1ccc(/C=C2/Sc3ccccc3N(CC(=O)NCCCOC(C)C)C2=O)cc1`, the Potency was inconclusive [activator, single point]. With `Cc1ccnc(NC(=O)/C=C/c2cccs2)c1` the Potency was inconclusive [activator, single point]. In the case of `O=C(NCc1ccc(F)cc1)C1CCCN(c2nc3ccsc3c(=O)s2)C1` (stereo unspecified), the Potency is reported as active: 11.6 µM. With `O=C(Nc1ccccc1Oc1ccccc1)c1cc([N+](=O)[O-])ccc1Cl` the Potency was inconclusive [activator, partial curve]. With `CN(C)C1=NC[C@H](Cc2ccccc2)N1CCCCc1ccccc1` the Potency was inconclusive [activator, single point]. In the case of `Cc1ccc(C2CC(=O)C=C(NCc3ccccc3)C2)cc1` (stereo unspecified), the Potency is reported as active: 20.6 µM. With `CCOC(=O)c1ccc(NC(=O)Nc2ccc3c(c2)OCCO3)cc1` the Potency was “inactive”. In the case of `Cc1ccccc1NC(=O)C(Cl)=C(Cl)Cl`, the Potency is reported as active: 18.4 µM. For `CCc1ccc(CN(C)C(=O)c2cc(COc3cccc(C(F)(F)F)c3)on2)nc1`, the Potency was “inactive”. With `C/C(=N\n1c(C)nc2ccccc2c1=O)c1ccc(N)cc1` the Potency was “inactive”. In the case of `O=C(COC(=O)/C=C/c1cccc(C(F)(F)F)c1)NCCN1C(=O)CSC1=O`, the Potency is reported as active: 25.9 µM. In the case of `Clc1ccc(-c2csc3ncnc(NCCN4CCOCC4)c23)cc1`, the Potency is reported as inconclusive [activator, partial curve, poor fit]. With `C/C(=N\NC(=O)CNC(=O)c1cccs1)c1ccc(Cl)c(Cl)c1` the Potency was inconclusive [activator, single point]. In the case of `CN(CC(=O)Nc1ccccc1Br)C(=O)C1CCN(C(=O)c2ccc(Cl)cc2)CC1`, the Potency is reported as “inactive”. In the case of `COC(=O)c1[nH]c2ccc(C)cc2c1NC(=O)c1ccccc1[N+](=O)[O-]`, the Potency is reported as inconclusive [activator, single point]. For `O=C(NCc1ccc(-c2nc3ccccc3s2)cc1)c1ccc(Br)o1`, the Potency was inconclusive [activator, full curve]. With `Cc1ccc(C(=O)Nc2ccccc2Oc2ccccc2)cc1[N+](=O)[O-]` the Potency was “inactive”. For `Cn1cc([N+](=O)[O-])c(C(=O)Nc2ccc(-c3nc4ccccc4o3)cc2)n1`, the Potency was active: 3.66 µM. With `COc1ccc(NC(=O)C(NC(=O)OC(C)(C)C)C(C)OCc2ccccc2)cc1` (stereo unspecified) the Potency was “inactive”. For `COc1ccc(C2c3[nH]c4ccccc4c3C[C@H]3C(=O)N(C4CCN(Cc5ccccc5)CC4)CC(=O)N23)c(OC)c1` (stereo partly specified), the Potency was inconclusive [activator, partial curve, poor fit]. For `COc1cccc(/C=N\NC(=O)Cn2nnc3ccccc32)c1O`, the Potency was inconclusive [activator, single point]. With `O=C(CCNc1cccc(Cl)c1)c1cccs1` the Potency was inconclusive [activator, single point]. In the case of `CCOc1ccc(C(=O)CCc2nc3ccccc3s2)cc1`, the Potency is reported as inconclusive [activator, full curve, poor fit]. In the case of `COc1ccc(-c2cc(C(F)(F)F)nc(SCC(=O)N3CCOCC3)n2)cc1OC`, the Potency is reported as inconclusive [activator, single point]. For `COc1cc2nc(CN(C)Cc3ccc(SC)cc3)[nH]c(=O)c2cc1OC`, the Potency was “inactive”. With `CCC(=O)Nc1ccc(C(=O)Nc2ccc3c(c2)C(=O)N(CC2CCCO2)C3=O)cc1` (stereo unspecified) the Potency was “inactive”. With `COC(=O)c1ccc(C(NC(=O)OCc2ccccc2)/C(F)=C/[C@@H](C)C(=O)NCc2ccc(-c3ccccc3)cc2)cc1` (stereo partly specified) the Potency was inconclusive [activator, partial curve, poor fit]. For `COc1ccc(NC(=O)c2c(C)nn(Cc3ccccc3)c2Cl)cc1S(=O)(=O)N1CCOCC1`, the Potency was active: 2.06 µM. For `C=CCNC(=S)NNC(=O)COc1ccc2cc(Br)ccc2c1`, the Potency was “inactive”. For `Cc1cccc(-n2cc(-c3ccccc3)[nH]c2=S)c1`, the Potency was “inactive”. For `CCCc1c(C)c2cc(C)ccc2[nH]c1=O`, the Potency was “inactive”. In the case of `CC(/C=C/c1ccco1)=N\NC(=O)COc1ccc(C)c(C)c1`, the Potency is reported as “inactive”. For `CCCCNC(=O)CSc1nc2ccc(Nc3nc(N4CCOCC4)nc(N4CCOCC4)n3)cc2s1`, the Potency was inconclusive [activator, single point]. With `CCN(CC)S(=O)(=O)c1ccc(O)c(C(=O)OCC(=O)NC23CC4CC(CC(C4)C2)C3)c1` the Potency was inconclusive [activator, partial curve, poor fit]. For `NC(=O)COC(=O)c1c2c(nc3ccccc13)CCCCC2`, the Potency was “inactive”. With `COc1ccc(Nc2nc(N3CCOCC3)nc(N3CCOCC3)n2)cc1` the Potency was “inactive”. For `CCOc1cc(NC(=S)NCC2CCCO2)c(OCC)cc1NC(=O)CC` (stereo unspecified), the Potency was “inactive”. In the case of `CC(=O)Nc1ccc(C=NN=C2c3ccccc3-c3ccccc32)cc1`, the Potency is reported as inconclusive [activator, partial curve, poor fit]. For `CN(Cc1cc(Cl)cc(Cl)c1O)Cc1c(O)ccc2ccccc12`, the Potency was active: 23.1 µM. With `CC(=NO)c1ccc2c(c1)C(=NO)c1ccccc1-2` the Potency was “inactive”. For `CC(NC(=O)/C(C#N)=C/c1ccc(N2CCOCC2)cc1)c1ccccc1` (stereo unspecified), the Potency was active: 20.6 µM. For `O=C(COC(=O)CCC(=O)c1ccc(Cl)cc1)NCCc1ccccc1`, the Potency was inconclusive [activator, partial curve, poor fit]. For `COc1ccc(/C=C/CN2CCCC(C(=O)c3ccc(OC)c(F)c3)C2)cc1` (stereo unspecified), the Potency was inconclusive [activator, single point]. With `Cn1cc(S(=O)(=O)NCCc2ccccc2)c(=O)n(C)c1=O` the Potency was inconclusive [activator, full curve, poor fit]. In the case of `O=C1CCCC2=C1CC(C(=O)OCc1ccccc1)C(=O)N2Cc1ccccc1` (stereo unspecified), the Potency is reported as inconclusive [activator, partial curve, poor fit]. With `CCN(CC)S(=O)(=O)c1cc(C(=O)Nc2cccnc2)ccc1Cl` the Potency was “inactive”. In the case of `COc1cc(/C=N\Nc2nncn2N)ccc1OC(C)=O`, the Potency is reported as inconclusive [activator, single point]. In the case of `CC(=O)OCC1OC(OC2C[C@]3(C)C(CC(O)C4C([C@](C)(CCC=C(C)C)OC5OC(CO)C(O)C(O)C5O)CC[C@]43C)[C@@]3(C)CCC(O)C(C)(C)C23)C(O[C@@H]2OC(C)C(O)C(O)C2O)C(O)C1O` (stereo partly specified), the Potency is reported as active: 0.517 µM. With `O=C(Cn1c(=S)[nH]c2ccccc2c1=O)N1CCc2ccccc2C1` the Potency was “inactive”. With `O=C(Nc1cc2c3c(c1)C1CCCC1CN3CC1CCCC21)c1ccccc1` (stereo unspecified) the Potency was inconclusive [activator, partial curve, poor fit]. With `O=C(O)Cn1c2c(c3ccccc31)CCCC2` the Potency was inconclusive [activator, single point]. With `COc1ccc(OC)c(NC(=O)C(=O)NCCC2=CCCCC2)c1` the Potency was inconclusive [activator, partial curve, poor fit]. In the case of `Cc1cccc(NC(=O)COc2ccc3c(c2)CCC3)n1`, the Potency is reported as inconclusive [activator, partial curve, poor fit].
